Reference: the supplement of paper PMC10126150
Sequences with one replicate were seen in a single cluster, so their values are uncertain.

Tested on: ATP
Test: switch fluorescence ratio, 500 uM ATP over buffer (Cy3 cluster intensity, sum of 5 cycles each) (fold (ratio)); higher = stronger signal-on switching upon ATP binding; sequences stand for … in TCGTCGGCAGCGTCAGATGTGTATAAGAGACAGTTTTTTTTTTTTTTTTTTTTTTTTT…TC
Settings: aptamer strand: ATP DNA aptamer (quencher-CACCTGGGGGAGTATTGCGGAGGAAGG + anchor), 100 nM annealed; ATP concentration: 500 uM; one replicate
Summary of the method: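 After annealing to 100 nM quencher-labelled ATP aptamer, Cy3-labelled switching-strand clusters on a modified Illumina MiSeq flow-cell were imaged in selection buffer. A second image followed after 15 min with 500 uM ATP at 22 °C, and five such buffer/ATP cycles were done, each separated by NaOH stripping and re-annealing. The fluorescence ratio, averaged per switch-domain sequence, is summed target-cycle over summed buffer-cycle Cy3 intensity per cluster, with clusters outside 100-1000 RFU excluded.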
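Further: ATP exposure 15 min at 22 °C before imaging.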

## CGGTCTAGCA
  switch fluorescence ratio: 1.02

## ATCATGTAGG
  switch fluorescence ratio: 1.04

## TTCCAATGTA
  switch fluorescence ratio: 1.03

## AGTTATTACT
  switch fluorescence ratio: 1

## GTGTTGGTTA
  switch fluorescence ratio: 0.964

## TACCCCACGA
  switch fluorescence ratio: 1.42

## ACGCTGTGTT
  switch fluorescence ratio: 0.995

## ACTGTTTGCG
  switch fluorescence ratio: 1.01

## TACATCGGTC
  switch fluorescence ratio: 1

## TGTGCTTAGG
  switch fluorescence ratio: 0.959

## AGTCGACTCG
  switch fluorescence ratio: 0.997

## GAGAATCGG
  switch fluorescence ratio: 0.941

## TAGACCTGTT
  switch fluorescence ratio: 0.972

## TATAAAGTAG
  switch fluorescence ratio: 1.05

## AGGGATAGAA
  switch fluorescence ratio: 1.03

## TTCGGCTTAT
  switch fluorescence ratio: 0.999

## AATTACATAT
  switch fluorescence ratio: 1.01

## GACATTGGCA
  switch fluorescence ratio: 0.968

## TTGGAATAGT
  switch fluorescence ratio: 1.05

## AAATCGCCTA
  switch fluorescence ratio: 1.01

## GCGTGACG
  switch fluorescence ratio: 1.06

## CTAAATTGT
  switch fluorescence ratio: 1.01

## GACCCGTAAA
  switch fluorescence ratio: 1.22

## TTGTTATCGT
  switch fluorescence ratio: 0.982

## GCTTGATTTT
  switch fluorescence ratio: 0.998

## GCTTGTCCAG
  switch fluorescence ratio: 0.963

## GATGGTTTG
  switch fluorescence ratio: 0.978

## CCCTAGAGCG
  switch fluorescence ratio: 1.11

## CTTTTAATAA
  switch fluorescence ratio: 1.02

## CTGGGTACAC
  switch fluorescence ratio: 0.961

## GTACTGGCTG
  switch fluorescence ratio: 0.95

## AAGCCCAGAG
  switch fluorescence ratio: 1.18

## GGACGCATGA
  switch fluorescence ratio: 1.6

## TTTCGCGAGA
  switch fluorescence ratio: 1.16

## CCCGGGGGCC
  switch fluorescence ratio: 1.03

## CGGGAAAAG
  switch fluorescence ratio: 1.02

## GCAGGTAGCC
  switch fluorescence ratio: 1.02

## TTCAACGACC
  switch fluorescence ratio: 1.14

## CTAGTACAGA
  switch fluorescence ratio: 0.98

## ATTAGCACGA
  switch fluorescence ratio: 1.06

## GGACTATTCA
  switch fluorescence ratio: 1.01

## TTACGGGATT
  switch fluorescence ratio: 1.01

## TTATAGCCAA
  switch fluorescence ratio: 2.44

## AACCAAAGCC
  switch fluorescence ratio: 1.1

## GAGACAACCT
  switch fluorescence ratio: 1.99

## TAAAACGAGT
  switch fluorescence ratio: 1.03

## CGTAAAACCT
  switch fluorescence ratio: 1.84

## GTGAACGTG
  switch fluorescence ratio: 1.01

## TAAAATGGAG
  switch fluorescence ratio: 0.968

## ATTGGTCCTA
  switch fluorescence ratio: 1.01

## GCAAAGATGC
  switch fluorescence ratio: 1.06

## CATTGTTAGA
  switch fluorescence ratio: 0.974

## TTGCCCGAG
  switch fluorescence ratio: 1

## CTGTGGGAG
  switch fluorescence ratio: 1

## AGTAATTAGC
  switch fluorescence ratio: 1.03

## TTTATTATCG
  switch fluorescence ratio: 0.946

## GCCTGTGCCT
  switch fluorescence ratio: 1.04

## CTAGTCAATA
  switch fluorescence ratio: 1.33

## GAGTCTCAGA
  switch fluorescence ratio: 1.02

## GCATTAATAG
  switch fluorescence ratio: 1.03

## CGAGGATGAG
  switch fluorescence ratio: 0.976

## CTATGGACGG
  switch fluorescence ratio: 1.01

## CGGGTATCTG
  switch fluorescence ratio: 0.986

## GAAGGGTTAA
  switch fluorescence ratio: 1.05

## CGGGCCGCT
  switch fluorescence ratio: 1.03

## GTAAACGTGT
  switch fluorescence ratio: 1.01

## CGAGATATGC
  switch fluorescence ratio: 1.02

## GAAAAGTAGG
  switch fluorescence ratio: 1.02

## GGCCAACCGA
  switch fluorescence ratio: 0.995

## CGTTTAGATG
  switch fluorescence ratio: 1.01

## TACAGCCTAT
  switch fluorescence ratio: 0.992

## TGCGGCGCCA
  switch fluorescence ratio: 0.994

## TGTGTGAGA
  switch fluorescence ratio: 1.04

## AAATCGGGTG
  switch fluorescence ratio: 1.16

## AAACAATTCG
  switch fluorescence ratio: 1.01

## AGTACAGTTT
  switch fluorescence ratio: 1.06

## CCATTGTCAG
  switch fluorescence ratio: 0.997

## TAGAAAAAGT
  switch fluorescence ratio: 0.986

## TGAAACTAGA
  switch fluorescence ratio: 1.03

## TCGGGCGAAA
  switch fluorescence ratio: 1

## CCAAAAGTCA
  switch fluorescence ratio: 1.06

## AGTGGACGTT
  switch fluorescence ratio: 1.01

## TGATAGGTAA
  switch fluorescence ratio: 1.03

## CCATGTCGCC
  switch fluorescence ratio: 1.03

## AGAACCTAGC
  switch fluorescence ratio: 1.18

## TTCGGCGGGA
  switch fluorescence ratio: 0.942

## GTGCCATGGC
  switch fluorescence ratio: 0.999

## CTTGGACGTG
  switch fluorescence ratio: 0.943

## CCGGCAAATA
  switch fluorescence ratio: 1.53

## GGAGGAACGT
  switch fluorescence ratio: 1.37

## CAATGAAAGG
  switch fluorescence ratio: 0.984

## TTTATCACAT
  switch fluorescence ratio: 1.08

## ACTTCCGCAT
  switch fluorescence ratio: 2.98

## TTCAGATCGC
  switch fluorescence ratio: 1.09

## ATCGGGCCTG
  switch fluorescence ratio: 0.962

## ACGCGGATGG
  switch fluorescence ratio: 1.06

## ACAGTAACGA
  switch fluorescence ratio: 1.08

## GCTTGCAACG
  switch fluorescence ratio: 1.02

## GATGCTGGAG
  switch fluorescence ratio: 1.06

## CTGTGGCGGA
  switch fluorescence ratio: 1.04

## CTTCTTTTG
  switch fluorescence ratio: 1.04

## CGGTAGGAAA
  switch fluorescence ratio: 0.993

## ACGGAACACC
  switch fluorescence ratio: 1.29

## TGCGTATTAG
  switch fluorescence ratio: 1.01

## CAATGTAAGG
  switch fluorescence ratio: 0.99

## TTTGATTAGC
  switch fluorescence ratio: 0.973

## CCAAGAGAAA
  switch fluorescence ratio: 1.06

## TCACGGAAAT
  switch fluorescence ratio: 1

## TACGAACGGT
  switch fluorescence ratio: 1.2

## ATCCAAAGTC
  switch fluorescence ratio: 1.11

## CGTTGCGTAG
  switch fluorescence ratio: 1.06

## AGAGCCGAAA
  switch fluorescence ratio: 0.971

## CAAAAGGTGT
  switch fluorescence ratio: 1.15

## GGATGCAGTA
  switch fluorescence ratio: 1.02

## CTCTGTTATC
  switch fluorescence ratio: 2.11

## CGTTCAAATC
  switch fluorescence ratio: 1.04

## ACGCTTTTGT
  switch fluorescence ratio: 1

## TAGCCAATGG
  switch fluorescence ratio: 1.07

## TGCCTTCTTT
  switch fluorescence ratio: 1.04

## GCGGGTCCGC
  switch fluorescence ratio: 1.04

## GCGGTTAAAT
  switch fluorescence ratio: 1.02

## CAAGCGGTGG
  switch fluorescence ratio: 1.08

## CTTTTTGGTT
  switch fluorescence ratio: 0.986

## AGAATGTAGC
  switch fluorescence ratio: 0.946

## TGACTAGGGT
  switch fluorescence ratio: 1.01

## CTCCGAGCTA
  switch fluorescence ratio: 4.18

## ACCGACGGT
  switch fluorescence ratio: 1.08

## GCGCAGTGCA
  switch fluorescence ratio: 1.03

## ATTGAGCTCT
  switch fluorescence ratio: 1

## TTCTGCAGAA
  switch fluorescence ratio: 1.09

## TTTAATCGA
  switch fluorescence ratio: 0.958

## GTCATACCAC
  switch fluorescence ratio: 1

## AGTATTGGAA
  switch fluorescence ratio: 0.953

## GAGTGGCCCT
  switch fluorescence ratio: 0.99

## CAAGCGGTGA
  switch fluorescence ratio: 0.996

## AGTTGCAGTG
  switch fluorescence ratio: 0.99

## ACCCGGGTTC
  switch fluorescence ratio: 1.03

## GCGTCGGCGC
  switch fluorescence ratio: 1.07

## AATCTTTGTC
  switch fluorescence ratio: 0.966

## CTGGCGTCAA
  switch fluorescence ratio: 1.64

## TGGTCATTTT
  switch fluorescence ratio: 1.02

## TCTGAGTACA
  switch fluorescence ratio: 1.02

## GCTAGTTCCG
  switch fluorescence ratio: 1.06

## AAAGGTCTC
  switch fluorescence ratio: 0.986

## TGCGGTGTCC
  switch fluorescence ratio: 0.988

## ATATATCACT
  switch fluorescence ratio: 1.04

## GAAGTACATA
  switch fluorescence ratio: 1.27

## TAAGGAGGGA
  switch fluorescence ratio: 1.01

## AGGACGCA
  switch fluorescence ratio: 1.26

## CTGACTTGAC
  switch fluorescence ratio: 1.08

## TACATATACA
  switch fluorescence ratio: 1.1

## AGCGCTCGG
  switch fluorescence ratio: 0.979

## GATTGTGCGC
  switch fluorescence ratio: 1

## CCCTTTGTC
  switch fluorescence ratio: 1.03

## CACCTTGGAA
  switch fluorescence ratio: 1.03

## TTTAAGTGCA
  switch fluorescence ratio: 1.04

## TTTCCAAGAT
  switch fluorescence ratio: 0.989
